Assay results taken from the RNAGym collection of RNA variant scans (doi:10.7554/elife.90254).
The source gives no read counts; variants with many changes may rest on few reads.

B1: LINE1-mini (parent)
chain: GGCAGAGCUCAACACAGCGUGGCAAAGUGGCUGUGGCUAGACUGCC

Variants of: B1
Assay: self-cleavage, relative activity (ratio to wild type); higher = more cleavage; in vitro, sequencing; the parent is a self-cleaving ribozyme

Row | Variant | self-cleavage
1 | C3A A4C G30A | 0.42
2 | C3A A16U G17U G21A C31A U38C | 0.14
3 | C3A A4G G5A C10G A26G G29U G40A | 0.01
4 | C3A A24G C31U C37U C46A | 0.07
5 | C3A A24G A39G C46G | 0.04
6 | C3A A4U A24C | 0.25
7 | G2U G7A U34A | 0.14
8 | C3A A16C A26C C31G | 0.04
9 | C3A A11U G19U U28G | 0.01
10 | G2U U20C C37G C42A | 0.01
11 | C3A A4C G17C A24C | 0.53
12 | C3A A4G C13G A16C | 0.04
13 | G2U G7C G21U U38A C42A | 0.04
14 | C3A A11G U20A A39U | 0.01
15 | G2U U20C C31G C46A | 0.01
16 | C3A A12U G36A | 0.14
17 | G2U G27A G29A | 0.07
18 | G2U G17C G33U U38A A39U | 0.03
19 | G2U G30U C31G A41C | 0.02
20 | G2U G7C A16U | 0.03
21 | G2U G17C G40A | 0.01

Row | Variant | self-cleavage
22 | G2U U9G G22C C45A | 0.03
23 | C3A A11C G40C A41U | 0.06
24 | G2U G21A C31A | 0.01
25 | C3A A4G A14U | 0.17
26 | G2U G21A C31A U38C C45A | 0.03
27 | C3A A24C A39G | 0.2
28 | C3A A6C C10A U34A | 0.04
29 | C3A A12U C15A G29U | 0.31
30 | C3A A6U C15A C42U C45G C46A | 0.09
31 | G2U G17U A24G | 0.01
32 | C3A A4U G19A G36C C45A | 0.14
33 | G2U G7A A41U | 0.09
34 | G2U G22C A41C | 0.05
35 | C3A A4G C37G | 0.1
36 | C3A A6C G7C A26C C31G | 0.2
37 | C3A A6U C10A | 0.05
38 | G2U G7C G30U | 0.04
39 | C3A A12G A16C | 0.01
40 | C3A A6C C10A G27U C42A | 0.02
41 | G2U G7A A14C A24G U34G G44C | 0.03
42 | G2U U9A C13U U20G U34A | 0.01

Row | Variant | self-cleavage
43 | G2U G19A U38C | 0.27
44 | G2U G21A A25G G30U C46A | 0.07
45 | G2U G19U G29A G30U U38G C45U | 0
46 | G2U G7U U9G C13A | 0.06
47 | C3A A11U G17A | 0.05
48 | G2U U20G G21A | 0.1
49 | C3A A6G A12G G29C | 0.03
50 | C3A A4C A14U C18G A24G C31G G36C G44U C45U | 0.02
51 | G2U G22A A39U C45G | 0.09
52 | C3A A6G C8A G17U U20C C31U G40C U43A | 0.18
53 | G2U G40U C46U | 0.03
54 | G2U G27C U28C | 0
55 | C3A A6C G21C | 1.07
56 | C3A A6G G35A | 0.29
57 | G2U U9C G36A A41U | 0.01
58 | C3A A6G G33C G35C C46U | 0.04
59 | C3A A24G C46U | 0.61
60 | G2U G27U U38C | 0.03
61 | G2U U9A A26U | 0.13
62 | G2U G7C C8U | 0.07
63 | G2U G27A U28A C42U | 0.02

Row | Variant | self-cleavage
64 | C3A A4G A25C A26C | 0.12
65 | C3A A4U G30C | 0.2
66 | C3A A4U G30A | 0.54
67 | C3A A14C U20C G35A | 0.05
68 | G2U G7A G30U U32C G35C | 0.13
69 | G2U U9G G29U G40C | 0.03
70 | G2U U32G C37G G40U | 0.01
71 | C3A A14G C31G U32G | 0.04
72 | G2U G19C C42A | 0.01
73 | C3A A6U G19A C23U C31A U38C C42U | 0.24
74 | G2U G27U U34A C37G G40C | 0.03
75 | C3A A4G C18A G33U | 0.06
76 | G2U G30C U32C C46G | 0.04
77 | G2U G7A U9A | 0.19
78 | G2U G21U U34G | 0.02
79 | C3A A12G A14G C31U C46G | 0.1
80 | C3A A12G A16U A39U C46A | 0.02
81 | G2U G5U G7U A11G C23G G27U U38G | 0
82 | C3A A11G G17C G30U C37U | 0.04
83 | C3A A11C C18A G19U G44A | 0.02
84 | C3A A12U C13A G17C G19U A39C C42U | 0.18
